From patent publication US4522813A, “Cyclic hexapeptide somatostatin analogs” (Merck & Co., Inc., priority 1983, dated 1985)
At least one peptide structure holds a part that was inferred or is arguable (an end, a ring closure or a residue). Starred links: 1 amine or outer side, 2 acyl side, 3 side chain; linkers in the order of their positions; H or OH if unused. Non-standard residues stand in square brackets, D forms with d. Residues, ends and D or L forms follow the SMILES beside them. ξ: configuration not given here. X1 = N[C@H]1CC[C@H](CC(N[*:1])C(=O)[*:2])CC1; ξPhe(4-CH2NH2) = NCc1ccc(CC(N)C(=O)O)cc1; NMeAbu = CC[C@H](NC)C(=O)O; NMeA = CN[C@@H](C)C(=O)O

Experiments:
portal vein glucagon = assay: Decrease of portal vein glucagon levels in anesthetized rats; type: in vivo, rat; conditions: multiple or fraction of the effect of somatostatin (=1), fiducial limits in parentheses, external jugular vein, portal vein blood after 5 minutes
Procedure: (§1) Analogs of somatostatin were compared to somatostatin in their ability to decrease the levels of portal vein glucagon and insulin in anesthetized rats. Male Sprague-Dawley rats (Charles River CD) weighing 160-200 g were anesthetized with urethane (150 mg/100 g of body weight; Aldrich). Saline or peptides were administered via the external jugular vein. After 5 minutes, the portal vein was exposed, and blood was collected via syringe containing 3 mg of EDTA and placed in chilled tubes containing 100 μl of Trasylol (FBA Pharmaceuticals) for subsequent hormone analysis. Plasma levels of glucagon were determined by the method of Faloona and Unger, Methods of Hormone Radioimmunoassay, Jaffe and Behrman (Eds), Academic Press, New York, Vol, II, pp. 257-527 (1976), utilizing glucagon antisera 30K obtained from R. Unger (Dallas, TX). Plasma levels of insulin were determined by a modification of the procedure of Herbert et al., J. Clin. Endocrinol. Metab., 25, 1375-1384 (1965).

[1] = test system: growth hormone release from rat pituitary cells; assay: In vitro inhibition of growth hormone release, cultured rat pituitary cells; type: cell-based; conditions: multiple or fraction of the effect of somatostatin (=1), fiducial limits in parentheses, 4 hours incubation
Procedure: The instant cyclic hexapeptide analogs of somatostatin are tested and compared with the effects of somatostatin in an in vitro test for the inhibition of growth hormone. The test is described as follows:
"Rat pituitaries were isolated according to the procedures of Vale and Grant "In vitro Pituitary Hormone Secretion Assay for Hypophysiotropic Substances" in Methods in Enzymology, Vol. XXXVII, eds. O'Malley, B. W. and Hardman, J. G. (Academic Press, Inc., New York) pp. 5-93 (1975).
After 4 days in culture, the cells were washed and incubated for 4 hours in Dulbecco-modified Eagle's medium in the presence or absence of graded doses of each analog or somatostatin. The medium was then collected for subsequent growth hormone determination by a double antibody radioimmunoassay for rat growth hormone."

portal vein insulin = assay: Decrease of portal vein insulin levels in anesthetized rats; type: in vivo, rat; conditions: multiple or fraction of the effect of somatostatin (=1), fiducial limits in parentheses, external jugular vein, portal vein blood after 5 minutes
Procedure: as §1

[2] = test system: pentagastrin evoked gastric secretion; assay: Inhibition of pentagastrin evoked gastric secretion in the chronic fistula dog; type: in vivo; parameters: dose or concentration left out as unconfirmed; conditions: infusion 0-60 min., relative to placebo trial
Procedure: The gastric effects of the instant cyclichexapeptide analogs of somatostatin are determined by the following procedure.
Compounds were tested for their ability to inhibit pentagastrin evoked gastric secretion in the chronic fistula dog. Female beagle dogs with a chronic gastric fistula were given pentagastrin (2.5 μg./kg./hour, i.v. from -60 to 120 min.) and gastric outputs were collected via the fistula cannula. Samples were analyzed at 30 minute intervals for volume (Ml.) and titratable acid (mEq/L) (Titration to pH 7 with 0.01N NaOH); total acid output (mEq) was calculated as the production of output volume and acid concentration. Test compounds were infused at a constant rate from 0 to 60 minutes. Data have been expressed as percent change of total acid output relative to a placebo trial in the same animals.

C[C@@H](O)[C@@H]1NC(=O)C(C[C@H]2CC[C@H](N)CC2)NC(=O)[C@@H](Cc2c[nH]c3ccccc23)NC(=O)[C@H](Cc2ccccc2)NC(=O)[C@@H]2CCCN2C(=O)[C@H](Cc2ccccc2)NC1=O (stereo partly drawn) [Cyclo(D-Trp-t-4-ChxAla-Thr-Phe-Pro-Phe)] (cyclo(FPF[dW][X1]T))
Glucagon Inhibition (portal vein glucagon): 55.8 (14, 394) | Growth Hormone Release Inhibition [1]: 1.3 (0.9, 1.8) | Insulin Inhibition (portal vein insulin): 57.0 (21.9, 133) | Gastric Secretion & Inhibition, Acid Concentration 0-30 ([2]; interval 0-30 min): 35% | Gastric Secretion & Inhibition, Vol. 0-30 ([2]; interval 0-30 min): 80% | Gastric Secretion & Inhibition, Acid Concentration 30-60 ([2]; interval 30-60 min): 49% | Gastric Secretion & Inhibition, Vol. 30-60 ([2]; interval 30-60 min): 91% | Gastric Secretion & Inhibition, Acid Concentration 60-90 ([2]; interval 60-90 min): 14% | Gastric Secretion & Inhibition, Vol. 60-90 ([2]; interval 60-90 min): 50% | Gastric Secretion & Inhibition, Acid Concentration 90-120 ([2]; interval 90-120 min): 6% | Gastric Secretion & Inhibition, Vol. 90-120 ([2]; interval 90-120 min): 0%

CC[C@H]1C(=O)N[C@@H](Cc2c[nH]cn2)C(=O)N[C@H](Cc2c[nH]c3ccccc23)C(=O)NC(C[C@H]2CC[C@H](N)CC2)C(=O)N[C@@H](CO)C(=O)N[C@@H](Cc2ccccc2)C(=O)N1C (stereo partly drawn) [Cyclo--(N--Me--Abu--His--D-Trp--t-AChxAla--Ser--Phe)] (cyclo(F[NMeAbu]H[dW][X1]S))
Glucagon Inhibition (portal vein glucagon): 88.3 (37.8, 180) | Growth Hormone Release Inhibition [1]: 1.7 (1.1, 2.7) | Insulin Inhibition (portal vein insulin): 93.4 (39.1, 226)

CC[C@H]1C(=O)N[C@@H](Cc2ccc(O)cc2)C(=O)N[C@H](Cc2c[nH]c3ccccc23)C(=O)NC(C[C@H]2CC[C@H](N)CC2)C(=O)N[C@@H](C(C)C)C(=O)N[C@@H](Cc2ccccc2)C(=O)N1C (stereo partly drawn) [Cyclo--(N--Me--Abu--Tyr--D-Trp--t-AChxAla--Val--Phe)] (cyclo(F[NMeAbu]Y[dW][X1]V))
Glucagon Inhibition (portal vein glucagon): 28.6 (7.4-112.2) | Growth Hormone Release Inhibition [1]: 3.3 (2.0-5.6) | Insulin Inhibition (portal vein insulin): 13.8 (3.7, 42.8)

CC(C)[C@@H]1NC(=O)C(C[C@H]2CC[C@H](N)CC2)NC(=O)[C@@H](Cc2c[nH]c3ccccc23)NC(=O)[C@H](Cc2ccc(O)cc2)NC(=O)[C@H](C)N(C)C(=O)[C@H](Cc2ccccc2)NC1=O (stereo partly drawn) [Cyclo--(N--Me--Ala--Tyr--D-Trp--t-AChxAla--Val--Phe)] (cyclo(F[NMeA]Y[dW][X1]V))
Glucagon Inhibition (portal vein glucagon): 72.2 (18.9, 320) | Growth Hormone Release Inhibition [1]: 148.5 (133, 164) | Insulin Inhibition (portal vein insulin): 47.5 (25.7, 88.2)

CC(C)[C@@H]1NC(=O)C(C[C@H]2CC[C@H](N)CC2)NC(=O)[C@H](Cc2c[nH]c3ccccc23)NC(=O)[C@H](Cc2ccc(O)cc2)NC(=O)[C@H](C)N(C)C(=O)[C@H](Cc2ccccc2)NC1=O (stereo partly drawn) [Cyclo--(N--Me--Ala--Tyr--L-Trp--t-AChxAla--Val--Phe)] (cyclo(F[NMeA]YW[X1]V))
Glucagon Inhibition (portal vein glucagon): 58.5 (12.9, 85.1) | Growth Hormone Release Inhibition [1]: 26.6 (22.2, 31.7) | Insulin Inhibition (portal vein insulin): 23.2 (11.1, 48.2)

C[C@@H](O)[C@@H]1NC(=O)C(Cc2ccc(CN)cc2)NC(=O)[C@@H](Cc2c[nH]c3ccccc23)NC(=O)[C@H](Cc2ccccc2)NC(=O)[C@@H]2CCCN2C(=O)[C@H](Cc2ccccc2)NC1=O (stereo partly drawn) [Cyclo--(Pro--Phe--D-Trp--p-AmPh--Thr--Phe)] (cyclo(FPF[dW][ξPhe(4-CH2NH2)]T))
Glucagon Inhibition (portal vein glucagon): 0.7 | Insulin Inhibition (portal vein insulin): 0.5 (0.3, 0.9)

C[C@@H](O)[C@@H]1NC(=O)C(C[C@H]2CC[C@H](N)CC2)NC(=O)[C@H](Cc2c[nH]c3ccccc23)NC(=O)[C@H](Cc2ccccc2)NC(=O)[C@@H]2CCCN2C(=O)[C@H](Cc2ccccc2)NC1=O (stereo partly drawn) [Cyclo--(Pro--Phe--L-Trp--t-AChxAla--Thr--Phe)] (cyclo(FPFW[X1]T))
Glucagon Inhibition (portal vein glucagon): 0.29 (0.05, 0.82) | Growth Hormone Release Inhibition [1]: 0.34 (0.14, 0.72) | Insulin Inhibition (portal vein insulin): 0.60 (0.07, 2.3)
